Assay results taken from PubChem BioAssay AID1030 (National Center for Advancing Translational Sciences (NCATS), 2008).
“And” between values parts separate entries of the source, which are not always exact repeats. Identical values can stand only once. Out of some 220,000 compounds screened, about 16,000 (7.3%) were called active. The inconclusive results got no clear call from the source; some entries with a clear call stand among them for comparison. Calls follow the shape of the dose curve; as a rule, active = well fitted inhibition curve with a large enough effect (not every such curve was filed as active); inconclusive = small, poorly fitted or top-dose-only effect, or another doubt; inactive = no such curve, though single readings can be large or run the other way. Potencies of inconclusive entries are left out as doubtful fits.

biological target: Aldehyde dehydrogenase 1A1 (Homo sapiens) (UniProt P00352); assay: qHTS Assay for Inhibitors of Aldehyde Dehydrogenase 1 (ALDH1A1); details: Purified ALDH1A1, NADH fluorescence, propionaldehyde substrate; series mostly up to 75.3 µM;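 as to activity, negative = inhibition: plate controls were no enzyme wells and a reference inhibitor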
Potency is read from the fitted curve at half-maximal effect; tags tell the direction and shape of the fitted curve.

Sequence of UniProt P00352 (P00352 whole entry, looked up): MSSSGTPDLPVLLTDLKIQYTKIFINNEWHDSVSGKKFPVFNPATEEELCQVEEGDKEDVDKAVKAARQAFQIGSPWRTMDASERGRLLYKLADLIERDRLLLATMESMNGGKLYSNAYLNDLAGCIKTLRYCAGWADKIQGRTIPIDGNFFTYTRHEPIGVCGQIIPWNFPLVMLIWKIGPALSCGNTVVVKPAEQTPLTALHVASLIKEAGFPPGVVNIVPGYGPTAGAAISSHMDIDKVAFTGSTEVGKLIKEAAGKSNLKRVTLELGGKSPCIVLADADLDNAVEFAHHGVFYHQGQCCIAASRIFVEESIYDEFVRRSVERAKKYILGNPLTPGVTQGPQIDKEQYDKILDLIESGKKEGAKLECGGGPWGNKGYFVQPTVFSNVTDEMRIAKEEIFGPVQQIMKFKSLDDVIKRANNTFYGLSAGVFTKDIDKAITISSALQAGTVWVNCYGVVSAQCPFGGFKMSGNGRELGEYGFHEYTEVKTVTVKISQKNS

Row | Compound | Potency | activity, negative = inhibition
1 | CCCCCCCc1c(O)nc(SCCN2CCOCC2)[nH]c1=O | inconclusive [inhibitor, single point] | –
2 | Cc1ccc(N2CCN(C3=NC(=O)/C(=C\c4cccs4)S3)CC2)cc1 | inconclusive [inhibitor, single point] | –
3 | CC1CCCCC1NCc1cccc([N+](=O)[O-])c1 (stereo unspecified) | inconclusive [inhibitor, single point] | –
4 | O=CCCCC=O | inactive | –
5 | CC(C)C(NC(=O)c1ccco1)C(=O)OCC(=O)Nc1ccc(C(N)=O)cc1 (stereo unspecified) | inconclusive [inhibitor, single point] | –
6 | CCC1CCCCN1C(=S)Nc1ccc(C(C)=O)cc1 (stereo unspecified) | inconclusive [inhibitor, single point] | –
7 | CCN(CC)C(=O)CSc1nnc(-c2cc3ccccc3cc2O)n1CC | inconclusive [inhibitor, single point] | –
8 | O=C(NC(=S)NNC(=O)c1ccccc1O)c1ccco1 | inconclusive [inhibitor, single point] | –
9 | Cc1cccc(C)c1NC(=O)CSc1nc(C)c(CC(=O)c2ccc(Br)cc2)c(C)c1C#N | inactive | –
10 | CCOc1ccc(NCC2CCOC(C)(C)C2)cc1 (stereo unspecified) | inconclusive [inhibitor, single point] | –
11 | CCN1C(=O)/C(=C/c2ccc(C)s2)SC1=Nc1ccc(OC)cc1 | inconclusive [inhibitor, single point] | –
12 | CC(=O)Nc1cccc(Oc2ncnc3scc(-c4ccc(C)cc4)c23)c1 | inconclusive [inhibitor, partial curve] | –
13 | O=C(c1cncc(Br)c1)N1CCCc2ccccc21 | inactive | –
14 | Cc1cccc(N/C=C(\[N+](=O)[O-])S(=O)(=O)c2ccccc2)c1C | active: 25.1 µM | –
15 | CSC1=NCCN1C(=O)c1ccc(C)cc1 | inactive | –
16 | COc1cccc(NC(=O)N2CCCC(C(=O)NCc3ccc(F)cc3)C2)c1 (stereo unspecified) | inconclusive [inhibitor, single point] | –
17 | O=C(c1ccc(-c2ccccc2)cc1)C1CCCN(C(=O)Cn2cncn2)C1 (stereo unspecified) | inconclusive [inhibitor, partial curve] | –
18 | O=C(c1ccccc1)C1CCN(C(=O)c2cccs2)CC1 | inconclusive [inhibitor, single point] | –
19 | NS(=O)(=O)c1ccc(CNC(=S)NC2CC2)cc1 | active: 3.16 µM | –
20 | COc1ccc(C(=O)NC(=S)Nc2nc(C)c(C(=O)N(C)C)s2)cc1 | inconclusive [inhibitor, single point] | –
21 | O=c1c(-c2ccc(Cl)cc2)nc2cnc(N3CCOCC3)nc2n1-c1ccccc1 | inconclusive [inhibitor, partial curve] | –
22 | COc1ccc(O[C@H]2C=C[C@@H](c3ccccc3)O[C@H]2CO/N=C(/C)CCC(=O)OC[C@@H]2O[C@H](c3ccccc3)C=C[C@@H]2Oc2ccc(OC)cc2)cc1 | – | inactive: 6.96% [at 13.5 µM]
23 | CCCCN(C(=O)CSc1cc(C)c2ccc(OC)cc2n1)c1c(N)n(Cc2ccccc2)c(=O)[nH]c1=O | inconclusive [inhibitor, single point] | –
24 | COC(=O)C1CCN(C(=O)Cc2ccc(C)cc2)CC1 | inconclusive [inhibitor, single point] | –

Row | Compound | Potency | activity, negative = inhibition
25 | Cc1cccc(C)c1NC(=O)CCCCCNS(=O)(=O)c1ccccc1 | inconclusive [inhibitor, partial curve] | –
26 | Cc1cc(C)c2[nH]c(=O)c(C(c3nnnn3Cc3ccc4c(c3)OCO4)N3CCCC3)cc2c1 (stereo unspecified) | inconclusive [inhibitor, single point] | –
27 | CCN1CCCC1CNC(=O)C(=O)NC(C)c1ccccc1 (stereo unspecified) | inactive | –
28 | COc1cc(NC(=O)c2cc(CC(C)C)on2)c(OC)cc1Cl | inconclusive [inhibitor, single point] | –
29 | O=c1c(-c2cc(F)cc(F)c2)nc2cnc(N3CCOCC3)nc2n1C1CC1 | inconclusive [inhibitor, single point] | –
30 | CCOC(=O)N1CCN(Cc2nc3c(c(=O)n(C)c(=O)n3C)n2CCC(C)C)CC1 | active: 0.224 µM | –
31 | COc1cccc(OC(C)c2ccnc3nc(/N=C/N(C)C)nn23)c1 (stereo unspecified) | inconclusive [inhibitor, partial curve] | –
32 | CCOC(=O)C1=C(CNCCc2ccc(Cl)cc2)NC(=O)NC1c1cccc([N+](=O)[O-])c1 (stereo unspecified) | inconclusive [inhibitor, partial curve] | –
33 | C=CCNc1cc(C(F)(F)F)nc(-c2ccccn2)n1 | inconclusive [inhibitor, single point] | –
34 | CCC(=O)OCCNc1cc(Sc2nccn2C)c2nonc2c1[N+](=O)[O-] | inactive | –
35 | NS(=O)(=O)c1ccc2nc(NC(=O)c3ccncc3)sc2c1 | inactive | –
36 | Cc1c(C(=O)NCc2ccc(F)cc2)c(-c2ccccc2)nn1-c1ccccc1 | inconclusive [inhibitor, full curve] | –
37 | COc1ccc(CNC(=S)Nc2cccc(C)c2)cc1 | inconclusive [inhibitor, single point] | –
38 | Cc1sc(NC(=O)CSc2nnc(-c3ccccc3)o2)c(C#N)c1C | inconclusive [inhibitor, single point] | –
39 | O=C1CCCC2=C1C1(CCCC1)N=C(Nc1nc3ccccc3s1)N2 | inconclusive [inhibitor, partial curve] | –
40 | COC(=O)C1=C(C)N(c2cc(Cl)cc(Cl)c2)C(=O)C1 | inconclusive [inhibitor, single point] | –
41 | Nc1ccc(Cl)cc1Cl | inactive | –
42 | CCOc1ccc(S(=O)(=O)N(CC(=O)N2CCc3ccccc32)Cc2ccco2)cc1 | inconclusive [inhibitor, single point] | –
43 | CCOc1cccc2cc(C(=O)Nc3ccccc3-c3ccccc3)c(=O)oc12 | active: 0.141 µM | –
44 | Cc1cc(C)c(C(N)=O)c(NCCc2ccccc2)n1 | inconclusive [inhibitor, single point] | –
45 | O=C(Nc1nc2ccccc2n1CCOc1ccc(Cl)cc1)c1ccco1 | inconclusive [inhibitor, single point] | –
46 | CCC(=O)N1CCN(CCN=CC2=C(O)CC(c3cccs3)CC2=O)CC1 (stereo unspecified) | inconclusive [inhibitor, single point] | –
47 | COc1ccc(/C=N/Nc2ncnc(Cl)c2N)cc1OC | inconclusive [inhibitor, single point] | –
48 | COc1ccc(N/N=C(/C#N)S(=O)(=O)C(C)(C)C)cc1 | inactive | –

Row | Compound | Potency | activity, negative = inhibition
49 | CCCCOc1ccc(C(=O)CCN2CCCCC2)cc1 | active: 224 nM and active: 794 nM and active: 44.7 nM | –
50 | CSc1ccc(C(=O)C2CCCN(C(=O)c3nn(C)c(=O)c4ccccc34)C2)cc1 (stereo unspecified) | inconclusive [inhibitor, single point] | –
51 | CC1CC(C)CN(CC(=O)Nc2ccc(S(N)(=O)=O)cc2)C1 (stereo unspecified) | active: 8.91 µM | –
52 | Nc1ccccc1C(=O)C[C@H](N)C(=O)O | inactive | –
53 | COc1cc(-c2nnc(-c3ccco3)o2)ccc1OCc1ccccc1 | inconclusive [inhibitor, partial curve] | –
54 | O=C(/C=C/c1ccccc1[N+](=O)[O-])NCC1CCCO1 (stereo unspecified) | inconclusive [inhibitor, single point] | –
55 | COC(=O)c1ccc(Oc2nc(N3CCCCC3)nc(N3CCOCC3)n2)cc1 | inconclusive [inhibitor, single point] | –
56 | COc1ncnc2sc(-c3ccccc3)cc12 | inconclusive [inhibitor, partial curve] | –
57 | COc1ccc(S(=O)(=O)N2Cc3ccccc3CC2C(=O)N2CCOCC2)cc1 (stereo unspecified) | inconclusive [inhibitor, partial curve] | –
58 | CN(C)CCCN1C(=O)C(=O)/C(=C(/O)c2ccc(S(=O)(=O)N(C)C)cc2)C1c1ccncc1 (stereo unspecified) | active: 25.1 µM | –
59 | O=S(=O)(N/N=C\C=C\c1ccccc1)c1ccc(Br)cc1 | inconclusive [inhibitor, single point] | –
60 | CCCOc1cccc(-c2cc(-c3n[nH]c(=S)n3CC)c3ccccc3n2)c1 | inactive | –
61 | O=C(Nc1ccc(N2CCOCC2)c(S(=O)(=O)Nc2ccc(Cl)cc2)c1)c1cnccn1 | active: 2 µM | –
62 | C=CCNc1nc(Cl)nc(Nc2ccc([N+](=O)[O-])cc2)n1 | inactive | –
63 | O=C(CSc1ccsc1[N+](=O)[O-])N1CCCCC1 | inconclusive [inhibitor, single point] | –
64 | O=C(Nc1ccc(N2CCCCC2)cc1)c1cc([N+](=O)[O-])cc([N+](=O)[O-])c1 | inactive | –
65 | COC(=O)c1ccc(NC(=S)NN2CCOCC2)cc1 | inactive | –
66 | O=[N+]([O-])c1ccc(OCC(O)CN2CCN(c3ccccc3F)CC2)cc1 (stereo unspecified) | inactive | –
67 | COc1ccccc1-c1cc(C(F)(F)F)n2ncc(S(=O)(=O)c3ccccc3)c2n1 | inconclusive [inhibitor, single point] | –
68 | Cc1ccc(OCC(=O)Nc2nnc(C3CCCO3)s2)c(Br)c1 (stereo unspecified) | inconclusive [inhibitor, partial curve] | –
69 | Cc1ccc([C@H]2C(C#N)=C(N)Oc3cc(C)oc(=O)c32)o1 | inconclusive [inhibitor, single point] | –
70 | O=P(O)(O)C(O)c1ccc2ccccc2c1 (stereo unspecified) | inactive | –
71 | COc1ccc(CCC(=O)c2c(O)cc(O[C@@H]3O[C@H](CO)[C@@H](O)[C@H](O)[C@H]3O[C@@H]3O[C@@H](C)[C@H](O)[C@@H](O)[C@H]3O)cc2O)cc1O | inconclusive [inhibitor, single point] | –
